Results reported in PubChem BioAssay AID2147 (National Center for Advancing Translational Sciences (NCATS), 2009).
About 3,600 (1.6%) of roughly 230,000 compounds were called active. Inconclusive results, whose numbers are uncertain, are shown with a selection of clear calls. Calls follow the shape of the dose curve; as a rule, active = well fitted inhibition curve with a large enough effect (not every such curve was filed as active); inconclusive = small, poorly fitted or top-dose-only effect, or another doubt; inactive = no such curve, though single readings can be large or run the other way. A potency beside an inconclusive call is a rough fit, not a confirmed value.

Each molecule was assayed against Lysine-specific demethylase 4E (Homo sapiens) (UniProt B2RXH2) (assay: qHTS Assay for Inhibitors of Human Jumonji Domain Containing 2E (JMJD2E)). Details: JMJD2E catalytic domain, FDH-coupled NADH fluorescence (FDH is formaldehyde dehydrogenase); series mostly up to 57.1 µM; activity change, negative = inhibition: at the top concentration.
Chain of UniProt B2RXH2 (B2RXH2 whole entry, looked up, the tested form may be a part): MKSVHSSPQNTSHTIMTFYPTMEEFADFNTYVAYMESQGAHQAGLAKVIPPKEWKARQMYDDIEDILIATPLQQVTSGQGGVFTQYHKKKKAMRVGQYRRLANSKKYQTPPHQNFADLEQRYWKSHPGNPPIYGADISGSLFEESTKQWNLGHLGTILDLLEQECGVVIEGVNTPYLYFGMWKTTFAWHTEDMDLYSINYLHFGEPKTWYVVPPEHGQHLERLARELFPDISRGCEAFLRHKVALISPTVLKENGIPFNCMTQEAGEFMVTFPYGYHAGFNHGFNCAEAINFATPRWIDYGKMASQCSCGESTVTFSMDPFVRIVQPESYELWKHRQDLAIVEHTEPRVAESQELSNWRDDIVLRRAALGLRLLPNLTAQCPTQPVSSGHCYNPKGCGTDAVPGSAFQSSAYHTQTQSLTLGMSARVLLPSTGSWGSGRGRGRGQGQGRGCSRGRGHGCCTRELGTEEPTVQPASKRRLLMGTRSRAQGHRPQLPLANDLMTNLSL
Also: nearly all actives have a fitted effect of over 50% in size.
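For activity change, negative = inhibition in this document: 0% = wells with enzyme and -100% = buffer wells without enzyme.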
Potency is read from the fitted curve at half-maximal effect; tags tell the direction and shape of the fitted curve.

Which Potency does the source give for CCCc1nnc(-c2cc(OC)c(OC)c(OC)c2)o1 here?
The Potency was inconclusive: 28.2 µM [inhibitor, single point].

For CC[C@H](C)C(=O)O[C@@H]1C[C@H](C)C=C2C=C[C@H](C)[C@@H](CC[C@H]3C[C@@H](O)CC(=O)O3)[C@H]21, which “activity change, negative = inhibition” value is on record?
The value was inactive: 5.28% [at 25.5 µM].

O=C(Nc1ccc(S(=O)(=O)N2CCCCC2)cc1)c1ccc(CN2CCc3ccccc3C2)cc1 was tested. Which Potency did it give?
Its Potency is inconclusive: 39.8 µM [inhibitor, single point].

Which Potency does the source give for CCN(Cc1ccncc1)Cc1cn[nH]c1-c1ccc(OC)cc1F here?
The Potency was inconclusive: 17.8 µM [inhibitor, partial curve].

CC(C)(C)c1ccc(OCCCNC2CCCC2)cc1 was tested. Which Potency did it give?
Its Potency is inconclusive: 22.4 µM [inhibitor, single point].

For COC(=O)C1=C(C)NC(C)=C(C(=O)OCCSc2ccccc2)[C@@H]1C, which Potency is on record?
The Potency was inconclusive: 35.5 µM [inhibitor, partial curve].

How did the Potency turn out when CCOC(=O)N1CCN(C(=O)c2cc3c(ccc4ccccc43)oc2=O)CC1 was run?
The Potency was inconclusive: 25.1 µM [inhibitor, partial curve].

With COc1ccc(CCNC(=O)c2ccc(=O)[nH]c2)cc1 as the molecule, how does the “activity change, negative = inhibition” value read?
Its value is inactive: -2.06%.

How did the Potency turn out when COc1ccc(-n2c(SCC(=O)Nc3nccs3)nc3sc4c(c3c2=O)CCN(C)C4)cc1 was run?
Its Potency is inconclusive: 39.8 µM [inhibitor, single point].

With NNC(=O)c1cccc(O)c1 as the molecule, how does the “activity change, negative = inhibition” value read?
Its value is inactive: 63.4%.

How did the “activity change, negative = inhibition” value turn out when CCC(C(=O)NCc1ccncc1)c1ccccc1 (stereo not given) was run?
Its value is inactive: -6.78%.

With COc1ccc(NCc2nn(CC(=O)c3ccc(Br)cc3)c3[n+]2CCCCC3)cc1 as the molecule, how does the Potency read?
The Potency was inconclusive: 39.8 µM [inhibitor, single point].

How did the “activity change, negative = inhibition” value turn out when CCOC(=O)C1(CCCc2ccccc2)CCN(C(=O)c2cnc(C)cn2)CC1 was run?
The value was inactive: 1.58%.

How did the “activity change, negative = inhibition” value turn out when CCOC(=O)C1(CC)NC(c2ccco2)C2C(=O)N(c3ccc(C)cc3)C(=O)C21 (stereo not given) was run?
Its value is inactive: -0.741%.

With CC(=O)NC(=S)Nc1ccc(-c2nc3ccc(C)cc3s2)cc1 as the molecule, how does the Potency read?
Its Potency is inconclusive: 17.8 µM [inhibitor, partial curve].

For COc1ccc(/C=C/C(=O)Nc2ccc(C(N)=O)cc2)cc1OC, which Potency is on record?
The Potency was inconclusive: 35.5 µM [inhibitor, single point].

For c1ccc(-c2nn[nH]n2)nc1, which Potency is on record?
The Potency was inconclusive: 35.5 µM [inhibitor, single point].

For COCCNC(=O)CN(c1ccc(OC)c(OC)c1)S(=O)(=O)c1ccc(C)cc1, which Potency is on record?
Its Potency is inconclusive: 39.8 µM [inhibitor, single point].

CCCNC(=O)CN(Cc1ccco1)S(=O)(=O)c1ccc(OCC)cc1 was tested. Which Potency did it give?
The Potency was inconclusive: 39.8 µM [inhibitor, single point].

For CCOC(=O)c1cc(-c2ccc(/C=C3/C(=O)NC(=O)C(C#N)=C3C)o2)ccc1Cl, which Potency is on record?
The Potency was inconclusive: 31.6 µM [inhibitor, single point].

CCC(/C=C1\Sc2ccc(OC)cc2N1CC)=C\c1sc2ccc(OC)cc2[n+]1CCCS(=O)(=O)[O-] was tested. Which “activity change, negative = inhibition” value did it give?
The value was inactive: -0.58%.

Which Potency does the source give for COc1cc(/C=C2/C(=N)N3C=CSC3=NC2=O)ccc1OCCCOc1c(C)cccc1C here?
Its Potency is inconclusive: 4.47 µM [inhibitor, single point].

With CCn1c(C)c(C2=CCN(S(=O)(=O)c3ccccc3)CC2)c2ccccc21 as the molecule, how does the Potency read?
The Potency was inconclusive: 35.5 µM [inhibitor, single point].

Which “activity change, negative = inhibition” value does the source give for O=C(NC(=S)Nc1ccc(Oc2ccc(Cl)cc2)cc1)c1ccccc1 here?
Its value is inactive: -1.18%.

For COc1ccc(N2Cc3cccc(C(=O)O)c3C2=O)cc1, which Potency is on record?
Its Potency is inconclusive: 39.8 µM [inhibitor, single point].

CCOC(=O)C1=C(C)NC2=C(C(=O)C(C(=O)OCC)C(c3ccc(OC)cc3)C2)C1c1ccccn1 (stereo not given) was tested. Which Potency did it give?
Its Potency is inconclusive: 25.1 µM [inhibitor, partial curve].

Cc1ccc(-n2[nH]c(C)c(/C=N/c3ccccn3)c2=O)cc1 was tested. Which Potency did it give?
Its Potency is inconclusive: 35.5 µM [inhibitor, single point].

Which Potency does the source give for CC(=O)c1ccc(NC(=O)c2ccc(S(=O)(=O)c3ccccc3)cc2)cc1 here?
Its Potency is inconclusive: 35.5 µM [inhibitor, single point].

With COc1ccc(O)c(C(=O)c2cc(C#N)c(=O)n(CC3CCCO3)c2)c1 (stereo not given) as the molecule, how does the “activity change, negative = inhibition” value read?
Its value is inactive: -18%.

Which “activity change, negative = inhibition” value does the source give for COC(=O)c1c(-c2ccc(C)cc2)csc1NC(=O)Cc1ccc(OC)c(OC)c1 here?
The value was inactive: -22.9%.

Which Potency does the source give for COc1ccc(/C=C2/C(=O)N(c3nc4ccccc4s3)N=C2CSc2ccc(Cl)cc2)cc1 here?
The Potency was inconclusive: 39.8 µM [inhibitor, single point].

CCN1CCN(CC(=O)c2ccc(OC)cc2)CC1 was tested. Which Potency did it give?
Its Potency is inconclusive: 6.31 µM [inhibitor, single point].

Which Potency does the source give for Cn1cccc/c1=N\c1cccc[n+]1C here?
The Potency was inconclusive: 25.1 µM [inhibitor, single point].

Which “activity change, negative = inhibition” value does the source give for Cc1ccc(/C=C(\C#N)C(=O)NC(C)C)o1 here?
The value was inactive: -11%.

How did the “activity change, negative = inhibition” value turn out when CCOC(=O)c1c(-c2ccccc2)csc1NC(=O)CCN1CCOCC1 was run?
Its value is inactive: -7.67%.

With COCCCNC(=O)/C=C/c1ccc(Cl)cc1Cl as the molecule, how does the “activity change, negative = inhibition” value read?
The value was inactive: 3.25%.

With CCC(C)C(=O)OC1CCC=C2C=CC(C)C(CCC3CC(O)CC(=O)O3)[C@@H]21 (stereo not given in full) as the molecule, how does the “activity change, negative = inhibition” value read?
The value was inactive: -9.32%.

How did the “activity change, negative = inhibition” value turn out when C=C(C)C(=O)OCCCCCCOc1ccc(C(=O)O)cc1 was run?
The value was inactive: -10.1%.

Cc1cc2ccccn2c1C(=O)Nc1cccc(Cl)c1 was tested. Which Potency did it give?
The Potency was inconclusive: 31.6 µM [inhibitor, partial curve].

CC(=O)Nc1ccc(S(=O)(=O)Nc2cccc(-c3cn4cccnc4n3)c2)cc1 was tested. Which Potency did it give?
The Potency was inconclusive: 28.2 µM [inhibitor, partial curve].

With Cc1nn(Cc2ccccc2)c(Cl)c1C(=O)NCCc1ccccc1 as the molecule, how does the “activity change, negative = inhibition” value read?
Its value is inactive: -2.78%.

With N#Cc1c(N)nc2c(c1-c1ccc3c(c1)OCO3)CCCCCC2 as the molecule, how does the Potency read?
Its Potency is inconclusive: 35.5 µM [inhibitor, single point].

For CCOc1ccc2c(c1)c1nnc(SCC(=O)N3CCC(C)CC3)nc1n2C, which “activity change, negative = inhibition” value is on record?
The value was inactive: 5.42%.

How did the Potency turn out when NC(=O)c1nn(-c2ccccc2)nc1NC(=O)CN1CCCC1 was run?
The Potency was inconclusive: 31.6 µM [inhibitor, partial curve].

Which “activity change, negative = inhibition” value does the source give for CCN(CC)S(=O)(=O)c1cccc(C(=O)N/N=C/c2ccc(N3CCOCC3)cc2)c1 here?
The value was inactive: 20.3%.

For C=CCN(CC=C)C(=S)NC(=O)Cc1cccc2ccccc12, which Potency is on record?
Its Potency is inconclusive: 35.5 µM [inhibitor, single point].

With CC1(OC(=O)C2CCCC2)C(=O)C=C2C=C(c3ccsc3)OC=C2C1=O (stereo not given) as the molecule, how does the “activity change, negative = inhibition” value read?
Its value is inactive: -2.16%.

For Cc1cccc(CSc2cn(CC(=O)N3CCOCC3)c3ccccc23)c1, which “activity change, negative = inhibition” value is on record?
The value was inactive: -6.44%.

How did the Potency turn out when CSc1nnc(-c2ccccc2SC)o1 was run?
The Potency was inconclusive: 39.8 µM [inhibitor, single point].

COc1ccccc1Oc1cc(C#N)c(C#N)cc1-n1nnc2ccccc21 was tested. Which Potency did it give?
The Potency was inconclusive: 39.8 µM [inhibitor, single point].

How did the “activity change, negative = inhibition” value turn out when CCOC(=O)C1=C(C)NC(=S)N(C=O)C1c1ccccc1 (stereo not given) was run?
The value was inactive: 8.48%.

Nc1nc(-c2ccc3ccccc3c2)cs1 was tested. Which Potency did it give?
The Potency was inconclusive: 31.6 µM [inhibitor, partial curve].

With Cc1ccc(N=c2oc3cc(O)ccc3cc2C(N)=O)cc1 as the molecule, how does the “activity change, negative = inhibition” value read?
Its value is inactive: 1.57%.

c1ccc2[nH]c(-c3nc4ccccc4[nH]3)nc2c1 was tested. Which Potency did it give?
The Potency was inconclusive: 28.2 µM [inhibitor, partial curve].

For CC(C)NC(=S)N/N=C/c1ccc(N2CCOCC2)cc1, which Potency is on record?
The Potency was inconclusive: 28.2 µM [inhibitor, partial curve].

How did the Potency turn out when O=C1C=CC2C(c3ccc4c(c3)OCO4)CC1N2Cc1ccccc1 (stereo not given) was run?
The Potency was inconclusive: 39.8 µM [inhibitor, single point].

With O=C(NCCCN1CCc2ccccc2C1)C1CCN(S(=O)(=O)N2CCC3(CC2)OCCO3)CC1 as the molecule, how does the “activity change, negative = inhibition” value read?
The value was inactive: 4.87%.

How did the “activity change, negative = inhibition” value turn out when CC1=C(C(=O)NCc2ccccn2)C2(CCC(C)CC2)OC1=O (stereo not given) was run?
The value was inactive: -3.63%.

Cc1nccc2[nH]c(=O)c(C(=O)NC3CCCCC3C)cc12 (stereo not given) was tested. Which Potency did it give?
Its Potency is inconclusive: 2.82 µM [inhibitor, partial curve].

How did the Potency turn out when S=c1[nH]nc(-c2ccc3c(c2)OCO3)n1-c1ccccc1 was run?
The Potency was inconclusive: 28.2 µM [inhibitor, single point].

How did the “activity change, negative = inhibition” value turn out when Cc1cc(NC(=O)c2ccccc2)n(-c2ccccc2)n1 was run?
Its value is inactive: 3.09%.

CC1(c2ccc(O)cc2)NC(=O)N(c2ccccc2)N1 (stereo not given) was tested. Which Potency did it give?
The Potency was inconclusive: 35.5 µM [inhibitor, single point].

With COC1CCCN(Cc2nc(Cc3ccccc3F)no2)C1 (stereo not given) as the molecule, how does the “activity change, negative = inhibition” value read?
The value was inactive: 15.2%.

Which “activity change, negative = inhibition” value does the source give for CCCCNC(=O)CCC(=O)NNc1nc2ccccc2c2nc(C)nn12 here?
The value was inactive: 2.22%.

With COC(=O)C1CCN(C(=O)COC(=O)c2n[nH]c3ccccc23)CC1 as the molecule, how does the Potency read?
The Potency was inconclusive: 28.2 µM [inhibitor, single point].

How did the “activity change, negative = inhibition” value turn out when O=[N+]([O-])/C=C/c1cn(Cc2ccccc2)c2ccccc12 was run?
Its value is inactive: 5.49%.

How did the “activity change, negative = inhibition” value turn out when CCc1ccc(NC(=O)COC(=O)CCc2nc3cc(S(=O)(=O)N(CC)CC)ccc3n2C)cc1 was run?
The value was inactive: 9.93%.

With COCCNC(=O)C1CCCN(c2ncccn2)C1 (stereo not given) as the molecule, how does the Potency read?
The Potency was inconclusive: 28.2 µM [inhibitor, single point].

For Cc1ccc(C)c(SCC(=O)OCC(=O)NCc2ccccc2)c1, which Potency is on record?
The Potency was inconclusive: 39.8 µM [inhibitor, single point].

With CCOC(=O)c1cccc(S(=O)(=O)N(CCO)Cc2cc3cc(OC)ccc3[nH]c2=O)c1 as the molecule, how does the Potency read?
The Potency was inconclusive: 31.6 µM [inhibitor, partial curve].

For Cc1ccc(-n2nnc3c(SCC(=O)NCC4CCCO4)ncnc32)cc1 (stereo not given), which “activity change, negative = inhibition” value is on record?
Its value is inactive: 4.06%.

Which Potency does the source give for Cc1ccc(C)c(N2CCN(C(=S)Nc3ccc4nc(N5CCN(C)CC5)cc(C)c4c3)CC2)c1 here?
Its Potency is inconclusive: 14.1 µM [inhibitor, partial curve].

For O=C(CSc1nnc2scc(-c3ccccc3)n12)Nc1ccc2c(c1)OCCO2, which “activity change, negative = inhibition” value is on record?
The value was inactive: 8.99%.

For COCCN1C(=O)C(=O)/C(=C(/O)c2cccc(OC)c2)C1c1ccco1 (stereo not given), which “activity change, negative = inhibition” value is on record?
The value was inactive: -10.9%.

CNC(=O)c1ccc(-c2sc3nc(N4CCOCC4)c4c(c3c2N)CCCC4)o1 was tested. Which Potency did it give?
The Potency was inconclusive: 12.6 µM [inhibitor, partial curve].
